Results: the RNAGym collection of RNA variant scans (doi:10.7554/elife.90254)
Read counts are not given, so values of variants with three or more changes are uncertain.

B1: OR4K15 (parent)
chain: GUUAACGGUCAUAGGCCAUGGAAACUAGGAGCACCAUUUCGCUGCCAGUGAAGAAAUGAACAAAGAAAAUCUGGGCCAGGCAGGCAUCAAAAGAAAUAGUCUUGCGCUCAACCAGAAAGUCUGUAAUCAUUUUAAGGGUA

Variants of: B1
Assay: self-cleavage, relative activity (ratio to wild type); higher = more cleavage; in vitro, sequencing; the parent is a self-cleaving ribozyme

| Variant | self-cleavage |
| --- | --- |
| A30G A64G A98U A134U | 0.52 |
| U26C G79A A116G | 0.09 |
| A22G A30G U37C U102C A134G | 1.85 |
| A47G A60G A64G A92G A95G U102C U122C U132G | 1.7 |
| A91U A110G U124C | 0.09 |
| U26G U43A U103C | 1.32 |
| U43C A63G A82U | 0.17 |
| U37C A47U A111U U127C | 0.01 |
| U38G A51G A66G A95G U100C G115U | 0.46 |
| U70A A91G U132C A135U | 0.82 |
| A51G U72C G74A A86U U132C | 0.09 |
| A18G A69G A118G | 1.39 |
| A13G A63G A64G A116G | 1.02 |
| A51G A69G U70C U122C | 0.19 |
| A11G A22U A111G U127C | 0.04 |
| A4G A66G A125G | 0.21 |
| A24U A91G U100C | 2.51 |
| U3A A116C U132A | 0.02 |
| A78U A82U A110G | 0.02 |
| A11G A23G A56G A111G U132C | 0.03 |
| A23U A52G U57A | 1.46 |
| A67G A86G A98C U127C | 1.21 |
| A23G A27G A62G A78U U87A A135G | 0.13 |
| A24G A52G A69G A98U A114G A118C | 0.37 |

| Variant | self-cleavage |
| --- | --- |
| A11G A24C A54G A68G A89G | 0.92 |
| A51G A55U A66G | 1.73 |
| A63G A68U U70C U108C U130C | 0.01 |
| A23G A52U U108C | 0.07 |
| A5G U87C A96U | 2.4 |
| G15A A23G U43C A69G U133C | 1.03 |
| U57G A64G A86G U87A U124A U131C U132C | 0.56 |
| U38C A69G U70C U100C A111G | 0.02 |
| A68G A69G A92G | 0.84 |
| A22G G41A A64G U70C A78G G136A | 0.37 |
| A18G A111G A114G | 0.01 |
| U12C A22G A47U U70C | 0.81 |
| U19A A30U A33G A54G | 0.92 |
| A5G U38A A51U A96G U130C | 0.39 |
| U49A A52G A67G | 1.33 |
| U2C A78G A114U | 0 |
| U103C A116G G137A | 0.19 |
| G74A A110C U127C | 0.03 |
| A30G A54G U132C | 1.33 |
| A18G A24G U39C A78G | 0.48 |
| A36G U37C A116G | 1.14 |
| A111G U124C U132C | 0.01 |
| G15A A18U U72A A92G C105U | 0.01 |
| A66G A91G U133C | 1.38 |

| Variant | self-cleavage |
| --- | --- |
| A30G A36U A78U A114U U130C | 0.02 |
| A54G A62G U87C U122C | 1.36 |
| A52G A78G U127C | 0.11 |
| A13U A86G A94G U122C A140G | 0.67 |
| U37C U103A A129G U133C | 0.78 |
| C46A U72A G84U | 0.04 |
| U12C A90G A94G C105A A111G | 0.03 |
| A11G A55G A134G | 0.87 |
| U3C A11U A129G | 0.67 |
| A22U A56G U130C | 1.24 |
| U37C A60G A114G | 0.27 |
| A51G A82G A94U U102C U108C A110G | 0 |
| U39A A69G U100C A125G G136A | 1.76 |
| U2G A22U A78C A110C U124C U131C | 0.04 |
| A5G U12C C40U A96G | 0.72 |
| U57C U72C A89G | 0.18 |
| A60G A66U A69G | 0.9 |
| A52G U57C U102C | 1.43 |
| U37C C40A U108C A114G A116G U132A | 0.02 |
| A5U A24G A91G A96G | 1.51 |
| A5G U38C A56G A89G A111G | 0.15 |
| A11C A67G A135G | 1.33 |
| A23G A27G A98U U132C | 1.57 |
| A30U U39A A59G | 1.35 |

| Variant | self-cleavage |
| --- | --- |
| U2C A36U U39C A51G A110G | 0.19 |
| A23G U37C C40A A94G C121A | 1.11 |
| A55G A92G U97C U132C | 1.31 |
| U39A A51G A98G A116G | 0.25 |
| U37C A54G A129G | 1.53 |
| U38C A60G G93A | 1.07 |
| A63U A67U C105U U120C U132C | 0.04 |
| U26C G79A U100C U131C U139C | 0.05 |
| U9C A86G A117G U124C | 0.67 |
| U2A U12A G138U | 1.25 |
| A30G U39A A54U A91G A116U | 0.04 |
| A54G A78U A89U G106U | 0.01 |
| U19A U38C U87A A90G U100C | 2.24 |
| A111G A118G A126G | 0.01 |
| A30G A63G A117G | 2.22 |
| G74A A98G U100C U124C A135U | 0.04 |
| A24G U87C U122C U130C | 0.79 |
| U2C A23U A24G U37C U43A | 0.87 |
| A60G A64G C121G U132C | 2.53 |
| U38C U87C A90G U124C | 0.18 |
| U57C G99A U100C | 0.92 |
| G1A A82U A92G A114U | 0.08 |
| G41U A55G U87A | 1.27 |
| U37C G75A A140G | 0.07 |

| Variant | self-cleavage |
| --- | --- |
| U38A A89G A125G A134G | 0.34 |
| C105U U108C A135G | 0.01 |
| A30U U43C U87C U120C | 0.55 |
| A22G A30G A51G A59U C128A | 0.54 |
| A47G A52U A117G | 2.49 |
| A18G A64C A98G U102C | 1.3 |
| G28U U37C A47G A64G | 1.01 |
| A30G A56G A66G A67G A95G | 2.06 |
| G7A A22U A89G | 0.6 |
| A11G A68G U130C | 0.75 |
| A24G A47G C76U | 0.2 |
| A64G A68G U102G | 0.32 |
| A60G U70A U87A | 0.8 |
| A13G A30G A33G | 1.07 |
| U37C A63G A66G A117G | 1.68 |
| U19C G74A A90G A111G | 0.01 |
| A24G G53A A55G A59G A69G U127A | 0.9 |
| U26C U57C A60G | 0.41 |
| U43C A69G A126U | 1.2 |
| A62C U102C U120A | 2.74 |
| A30G U43A A69G U108C | 0.03 |
| U9C A18G A94G | 1.88 |
| A30G A51G A63C A78C A89U | 0.24 |
| A30G A98G G137U | 0.84 |

| Variant | self-cleavage |
| --- | --- |
| U38C A92G A111G | 0.02 |
| U87C U103A U130A | 0.42 |
| C45G A47U U102C | 1.36 |
| G14A A33U A90G | 1.3 |
| G15C A56G U100C | 2 |
| A24G A78U A129G U131G A140G | 0.1 |
| U37C A60G A91G | 0.62 |
| A36G U72A A94G A116U | 0.1 |
| A60U A67G A91U U100C | 1.28 |
| G80A A111G A118G | 0.02 |
| A24U A54G A66U | 1.14 |
| A51G A55G A78U A82G A116U | 0.03 |
| U12A A18G U37C | 1.15 |
| A33U A66U A116U | 0.03 |
| U12A U37C U103C A116G | 0.26 |
| U43A A54U C85U | 1.73 |
| U9C C45G A63U A78G | 0.32 |
| U38C A59G U124C | 0.61 |
| G41C A51G A54G U139C | 1.05 |
| A5G C34A A116G | 0.2 |
| C25U C88A U127C | 1.75 |
| A47G U70C A78G | 0.21 |
| A18U U38C U57A | 1.62 |
| U19C U72C G106C U108C | 0.01 |

| Variant | self-cleavage |
| --- | --- |
| A90G U108C A110G | 0.01 |
| U38C A60U G104A | 0.07 |
| U43C A60G U97C | 1.43 |
| A24G A94U U108C U127A | 0.01 |
| A56G A68G A114U | 0.05 |
| A23G U72C A78G A92G | 0.2 |
| U37C A47U A63G | 0.93 |
| C42U A86G A89G C109U | 0.56 |
| U2C U38C A90G | 1.27 |
| A54G A56G A118G | 1.23 |
| U2C U9C U72A A82G | 0.13 |
| U9C C40U U43C A56G A64G U103A | 0.65 |
| A68U A82G A91G | 0.16 |
| U49C U72C U122C | 0.02 |
| A24U A51G A118G | 0.69 |
| U39C A64G A69G A110G | 0.2 |
| A11U C42U U108C A126G | 0 |
| A18U U26A U139G | 0.83 |
| A5U G15U A63G A67G U102C A129G | 1.31 |
| C46U A78U A82G A95C G115A | 0 |
| A69G U103C U108C | 0.02 |
| U43A A78U A82G | 0.14 |
| G41U A67U U97A | 1.28 |
